From PMC5681660, “Reduced hepatitis B and D viral entry using clinically applied drugs as novel inhibitors of the bile acid transporter NTCP” (Scientific Reports, 2017)
Structures can show the parent of a compound that is named as a salt. Where two headings read alike, the source gives them in different places.

Legend:
human NTCP [1] = biological target: T1, human NTCP (Homo sapiens, UniProt Q14973); experiment: Screening taurocholate uptake assay (96-well, [14C]taurocholate, 10 µM drug); settings: for remaining activity at 10 µM: 10 min, read-out: %NTCP activity
T1 sequence (Q14973 1-349): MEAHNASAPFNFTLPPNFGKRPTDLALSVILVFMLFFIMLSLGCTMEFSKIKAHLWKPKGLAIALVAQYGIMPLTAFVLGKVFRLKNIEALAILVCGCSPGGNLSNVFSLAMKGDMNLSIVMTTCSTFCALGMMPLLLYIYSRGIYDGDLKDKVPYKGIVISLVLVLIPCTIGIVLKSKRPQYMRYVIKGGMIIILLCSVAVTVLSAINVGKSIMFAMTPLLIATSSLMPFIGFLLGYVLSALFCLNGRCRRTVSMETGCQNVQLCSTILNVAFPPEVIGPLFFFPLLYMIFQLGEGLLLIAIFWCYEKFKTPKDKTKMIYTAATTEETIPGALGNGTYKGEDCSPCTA

human NTCP [2] = biological target: T1, human NTCP; experiment: Screening fluorescent competitive Myrcludex B-FITC binding assay (96-well, 10 µM drug)
[3] = Prestwick library screen, 10 µM drug, [14C]taurocholate uptake
[4] = Prestwick library screen, 10 µM drug, Myrcludex B-FITC binding
[5] = Prestwick library screen, Myrcludex B-FITC binding, 10 µM drug
[6] = screen, 10 µM drug, Myrcludex B-FITC binding
[7] = Prestwick library screen, [14C]taurocholate uptake, 10 µM drug

Structure (SMILES)	remaining activity at 10 µM (human NTCP [1]) [%]	remaining activity at 10 µM (human NTCP [2]; 0.5 h, read-out: %NTCP binding) [%]	also measured
CCN(CC)CCNC(=O)COc1ccc(OC)cc1.Cl [Mefexamide hydrochloride]			%NTCP activity (human NTCP [1]; [3]): 118.598%; %NTCP binding (human NTCP [2]; [4]): 65.5109%
OC(c1cc(C(F)(F)F)nc2c(C(F)(F)F)cccc12)C1CCCCN1 (centres unmarked) [Mefloquine hydrochloride]	84	75.1	
CC(=O)O[C@]1(C(C)=O)CC[C@H]2[C@@H]3C=C(C)C4=CC(=O)CC[C@]4(C)[C@H]3CC[C@@]21C [Megestrol acetate]	109	82.9	
COc1ccc2[nH]cc(CCNC(C)=O)c2c1 [Melatonin]	63.6	76.6	
C=C1C[C@H]2[C@@H]3C=C(C)C4=CC(=O)CC[C@]4(C)[C@H]3CC[C@]2(C)[C@@]1(OC(C)=O)C(C)=O [Melengestrol acetate]	51.5	89.2	
CC12CC3CC(C)(C1)CC(N)(C3)C2 [Memantine Hydrochloride]	116	93.9	
C[N+]1(C)CCCC(OC(=O)C(O)(c2ccccc2)c2ccccc2)C1 (centres unmarked) [Mepenzolate bromide]	73.2	72.2	
Cc1ccccc1OCC(O)CO (centres unmarked) [Mephenesin]	107	79	
CNC(C)(C)Cc1ccccc1.CNC(C)(C)Cc1ccccc1.O=S(=O)(O)O [Mephentermine hemisulfate]			%NTCP activity (human NTCP [1]): 75.9589%; %NTCP binding (human NTCP [2]; [5]): 99.8606%
CCC1(c2ccccc2)NC(=O)N(C)C1=O (centres unmarked) [Mephenytoin]	146	78.1	
CCCNC(C)(C)COC(=O)c1ccccc1 [Meprylcaine hydrochloride]	68.6	104	
S=c1[nH]cnc2nc[nH]c12 [Mercaptopurine]	124	83.9	
C[C@@H](O)[C@H]1C(=O)N2C(C(=O)O)=C(S[C@@H]3CN[C@H](C(=O)N(C)C)C3)[C@H](C)[C@H]12 [Meropenem]	109	95.6	
Nc1ccc(O)c(C(=O)O)c1 [Mesalamine]	70.3	121	
CN(C)C(=N)N=C(N)N [Metformin hydrochloride]	157	119	
CC(=O)OC(C)C[N+](C)(C)C (centres unmarked) [Methacholine chloride]	92.3	78.1	
CC[N+](C)(CC)CCOC(=O)C1c2ccccc2Oc2ccccc21 [Methantheline bromide]	83.1	110	
CC(=O)/N=c1/sc(S(N)(=O)=O)nn1C [Methazolamide]	104	98.8	
C1N2CN3CN1CN(C2)C3 [Methenamine]	127	62.3	
Cn1cc[nH]c1=S [Methimazole]	98.3	107	
CSc1ccc2c(c1)C(N1CCN(C)CC1)Cc1ccccc1S2.O=C(O)/C=C\C(=O)O (centres unmarked) [Methiothepin maleate]			%NTCP activity (human NTCP [1]; screen, 10 µM drug, [14C]taurocholate uptake): 130.345%; %NTCP binding (human NTCP [2]; [6]): 57.715%
COc1ccccc1OCC(O)COC(N)=O (centres unmarked) [Methocarbamol]	75.9	76.9	
CN(Cc1cnc2nc(N)nc(N)c2n1)c1ccc(C(=O)N[C@@H](CCC(=O)O)C(=O)O)cc1 [Methotrexate]	43.2	85.8	
COc1ccc2c(c1)N(C[C@H](C)CN(C)C)c1ccccc1S2.O=C(O)/C=C\C(=O)O [Methotrimeprazine maleat salt]			%NTCP activity (human NTCP [1]; [7]): 117.482%; %NTCP binding (human NTCP [2]; [5]): 62.4454%
C[N+]1(C)[C@@H]2CC[C@H]1C[C@@H](OC(=O)C(CO)c1ccccc1)C2 (some centres unmarked) [Methylatropine nitrate]	65.3	100	

Structure (SMILES)	remaining activity at 10 µM (human NTCP [1]) [%]	remaining activity at 10 µM (human NTCP [2]; 0.5 h, read-out: %NTCP binding) [%]	also measured
C[C@](N)(Cc1ccc(O)c(O)c1)C(=O)O [Methyldopa (L,-)]			%NTCP activity (human NTCP [1]; [7]): 58.8452%; %NTCP binding (human NTCP [2]; [5]): 56.8892%
CCOC(=O)[C@@](C)(N)Cc1ccc(O)c(O)c1 [Methyldopate hydrochloride]	120	89.2	
CC[C@@H](CO)NC(=O)[C@@H]1C=C2c3cccc4[nH]cc(c34)C[C@H]2N(C)C1 [Methylergometrine maleate]	82.3		remaining activity at 10 µM (human NTCP [2]; 0.5 h, read-out: %NTCP binding, Prestwick library screen, 10 µM drug, Myrcludex B-FITC binding): 64.3%
C[C@H]1NC(=O)NC1=O [Methylhydantoin-5-(D)]			%NTCP activity (human NTCP [1]): 91.3725%; %NTCP binding (human NTCP [2]; [6]): 81.2402%
CC1NC(=O)NC1=O (centres unmarked) [Methylhydantoin-5-(L)]	124		remaining activity at 10 µM (human NTCP [2]; 0.5 h, read-out: %NTCP binding, Prestwick library screen, Myrcludex B-FITC binding, 10 µM drug): 88.2%
C[C@H]1C[C@@H]2[C@H]([C@@H](O)C[C@@]3(C)[C@H]2CC[C@]3(O)C(=O)CO)[C@@]2(C)C=CC(=O)C=C12 [Methylprednisolone, 6-alpha]			%NTCP activity (human NTCP [1]; [3]): 51.1636%; %NTCP binding (human NTCP [2]; [4]): 71.5885%
Cc1cc2c(cc1S(N)(=O)=O)S(=O)(=O)CCC2 [Meticrane]	144	111	
CN1CCCC(CC2c3ccccc3Sc3ccccc32)C1 (centres unmarked) [Metixene hydrochloride]	67.6	76.5	
Cc1ccccc1N1C(=O)c2cc(S(N)(=O)=O)c(Cl)cc2NC1C (centres unmarked) [Metolazone]	40.8	99.8	
CC(=O)Nc1c(I)c(C(=O)N[C@H]2C(O)O[C@H](CO)[C@@H](O)[C@@H]2O)c(I)c(N(C)C(C)=O)c1I (some centres unmarked) [Metrizamide]	51.5	63.2	
Cc1ncc([N+](=O)[O-])n1CCO [Metronidazole]	59.9	82.1	
CC(C)(C(=O)c1cccnc1)c1cccnc1 [Metyrapone]	61.6	127	
C[C@@]1(O)CCOC(=O)C1 [Mevalonic-D, L acid lactone]			%NTCP activity (human NTCP [1]; [3]): 104.706%; %NTCP binding (human NTCP [2]; [4]): 107.782%
CC[C@H](C)C(=O)O[C@H]1CCC=C2C=C[C@H](C)[C@H](CC[C@@H]3C[C@@H](O)CC(=O)O3)[C@H]21 [Mevastatin]	73.3	84.7	
CN1CCN2c3ccccc3Cc3ccccc3C2C1.Cl (centres unmarked) [Mianserine hydrochloride]			%NTCP activity (human NTCP [1]; [7]): 81.404%; %NTCP binding (human NTCP [2]; [5]): 90.6884%
COc1ccc(OC)c(C(O)CNC(=O)CN)c1 (centres unmarked) [Midodrine hydrochloride]	91.8	92.7	
OCCN1C[C@H](O)[C@@H](O)[C@H](O)[C@H]1CO [Miglitol]	55.1	83.4	
CCN(CC)C(=O)C1(c2ccccc2)CC1CN.Cl (centres unmarked) [Milnacipran hydrochloride]			%NTCP activity (human NTCP [1]): 134.458%; %NTCP binding (human NTCP [2]; [4]): 57.458%
Cc1[nH]c(=O)c(C#N)cc1-c1ccncc1 [Milrinone]	82.5	106	
Cc1cc(-c2ccccc2)nnc1NCCN1CCOCC1 [Minaprine dihydrochloride]	95.5	114	
CN(C)c1ccc(O)c2c1C[C@H]1C[C@H]3[C@H](N(C)C)C(O)=C(C(N)=O)C(=O)[C@@]3(O)C(O)=C1C2=O [Minocycline hydrochloride]	48.6	78.2	
CN1CCN2c3ncccc3Cc3ccccc3C2C1 (centres unmarked) [Mirtazapine]	30.8	76	
Clc1ccc(C(c2ccccc2Cl)C(Cl)Cl)cc1 (centres unmarked) [Mitotane]	73.7	113	
O=C1c2c(O)ccc(O)c2C(=O)c2c(NCCNCCO)ccc(NCCNCCO)c21 [Mitoxantrone dihydrochloride]	122	61.3	
